In patent US9873709B2 (priority 2013, dated 2018):

Target: isolated recombinant JAK1 kinase domain (Homo sapiens (Human), UniProt P23458)
Conditions: read-out: JAK1 Ki; isolated recombinant JAK1 kinase domain, 25 μM ATP

SMILES | Ki [nM]
O=C(CCC(F)(F)F)N1CC=C(c2cccn3nc(Nc4ccc(C(=O)N5CCO[C@@H]6CNC[C@@H]65)cc4)nc23)CC1 [Example 2-139, 1-[4-[2-[4-[(4aS,7aR)-3,4a,5,6,7,7a-hexahydro-2H-pyrrolo[3,4-b][1,4]oxazine-4-carbonyl]anilino]-[1,2,4]triazolo[1,5-a]pyridin-8-yl]-3,6-dihydro-2H-pyridin-1-yl]-4,4,4-trifluoro-butane-1-one] | 1.18
O=C(CCC(F)(F)F)N1CC=C(c2cccn3nc(Nc4ccc(C(=O)N5CC(C6CCCNC6)c6ccccc65)cc4)nc23)CC1 (stereo not drawn) [Example 2-140, 4,4,4-trifluoro-1-[4-[2-[4-[3-(3-piperidyl)indoline-1-carbonyl]anilino]-[1,2,4]triazolo[1,5-a]pyridin-8-yl]-3,6-dihydro-2H-pyridin-1-yl]butan-1-one] | 4.29
CN(Cc1cccc2cccnc12)C(=O)c1ccc(Nc2nc3c(C4=CCN(C(=O)CCC(F)(F)F)CC4)cccn3n2)cc1 [Example 2-141, N-methyl-N-(8-quinolylmethyl)-4-[[8-[1-(4,4,4-trifluorobutanoyl)-3,6-dihydro-2H-pyridin-4-yl]-[1,2,4]triazolo[1,5-a]pyridin-2-yl]amino]benzamide] | 2.99
N#CCCN1CCN(C(=O)c2ccc(Nc3nc4c(C5=CCN(C(=O)CCC(F)(F)F)CC5)cccn4n3)cc2)CC1 [Example 2-142, 3-[4-[4-[[8-[1-(4,4,4-trifluorobutanoyl)-3,6-dihydro-2H-pyridin-4-yl]-[1,2,4]triazolo[1,5-a]pyridin-2-yl]amino]benzoyl]piperazin-1-yl]propanenitrile] | 1.18
Cc1ccc(C2CCCN2C(=O)c2ccc(Nc3nc4c(C5=CCN(C(=O)CCC(F)(F)F)CC5)cccn4n3)cc2)nc1 (stereo not drawn) [Example 2-143, 4,4,4-trifluoro-1-[4-[2-[4-[2-(5-methyl-2-pyridyl)pyrrolidine-1-carbonyl]anilino]-[1,2,4]triazolo[1,5-a]pyridin-8-yl]-3,6-dihydro-2H-pyridin-1-yl]butan-1-one] | 0.91
CN1CCN(C(=O)c2ccc(Nc3nc4c(C5=CCN(C(=O)CCC(F)(F)F)CC5)cccn4n3)cc2)CC(CO)C1 (stereo not drawn) [Example 2-144, 4,4,4-trifIuoro-1-[4-[2-[4-[6-(hydroxymethyl)-4-methyl-1,4-diazepane-1-carbonyl]anilino]-[1,2,4]triazolo[1,5-a]pyridin-8-yl]-3,6-dihydro-2H-pyridin-1-yl]butan-1-one] | 0.98
O=C(CCC(F)(F)F)N1CC=C(c2cccn3nc(Nc4ccc(C(=O)N5Cc6cccnc6C5)cc4)nc23)CC1 [Example 2-146, 1-[4-[2-[4-(5,7-dihydropyrrolo[3,4-b]pyridine-6-carbonyl)anilino]-[1,2,4]triazolo[1,5-a]pyridin-8-yl]-3,6-dihydro-2H-pyridin-1-yl]-4,4,4-trifluoro-butan-1-one] | 1.63
Cc1ccc(CNC(=O)c2ccc(Nc3nc4c(C5=CCN(C(=O)CCC(F)(F)F)CC5)cccn4n3)cc2)cn1 [Example 2-148, N-[(6-methyl-3-pyridyl)methyl]-4-[[8-[1-(4,4,4-trifluorobutanoyl)-3,6-dihydro-2H-pyridin-4-yl]-[1,2,4]triazolo[1,5-a]pyridin-2-yl]amino]benzamide] | 0.44
CN1CCC(C2CCCCN2C(=O)c2ccc(Nc3nc4c(C5=CCN(C(=O)CCC(F)(F)F)CC5)cccn4n3)cc2)CC1 (stereo not drawn) [Example 2-149, 4,4,4-trifluoro-1-[4-[2-[4-[2-(1-methyl-4-piperidyl)piperidine-1-carbonyl]anilino]-[1,2,4]triazolo[1,5-a]pyridin-8-yl]-3,6-dihydro-2H-pyridin-1-yl]butane-1-one] | 0.87
CN1CCC(N(C(=O)c2ccc(Nc3nc4c(C5=CCN(C(=O)CCC(F)(F)F)CC5)cccn4n3)cc2)C2CC2)CC1 [Example 2-150, N-cyclopropyl-N-(1-methyl-4-piperidyl)-4-[[8-[1-(4,4,4-trifluorobutanoyl)-3,6-dihydro-2H-pyridin-4-yl]-[1,2,4]triazolo[1,5-a]pyridin-2-yl]amino]benzamide] | 1.25
O=C(CCC(F)(F)F)N1CC=C(c2cccn3nc(Nc4ccc(C(=O)N5CCN6CCCCC6C5)cc4)nc23)CC1 (stereo not drawn) [Example 2-151, 1-[4-[2-[4-(1,3,4,6,7,8,9,9a-octahydropyrido[1,2-a]pyrazine-2-carbonyl)anilino]-[1,2,4]triazolo[1,5-a]pyridin-8-yl]-3,6-dihydro-2H-pyridin-1-yl]-4,4,4-trifluoro-butan-1-one] | 1.49
CN(CCc1ccccn1)C(=O)c1ccc(Nc2nc3c(C4=CCN(C(=O)CCC(F)(F)F)CC4)cccn3n2)cc1 [Example 2-152, N-methyl-N-[2-(2-pyridyl)ethyl]-4-[[8-[1-(4,4,4-trifluorobutanoyl)-3,6-dihydro-2H-pyridin-4-yl]-[1,2,4]triazolo[1,5-a]pyridin-2-yl]amino]benzamide] | 1.67
O=C(CCC(F)(F)F)N1CC=C(c2cccn3nc(Nc4ccc(C(=O)N5CCN(CCO)CC5)cc4)nc23)CC1 [Example 2-153, 4,4,4-trifluoro-1-[4-[2-[4-[4-(2-hydroxyethyl)piperazine-1-carbonyl]anilino]-[1,2,4]triazolo[1,5-a]pyridin-8-yl]-3,6-dihydro-2H-pyridin-1-yl]butan-1-one] | 1.03
O=C(CCC(F)(F)F)N1CC=C(c2cccn3nc(Nc4ccc(C(=O)N5CCOC(c6ccccn6)C5)cc4)nc23)CC1 (stereo not drawn) [Example 2-154, 4,4,4-trifluoro-1-[4-[2-[4-[2-(2-pyridyl)morpholine-4-carbonyl]anilino]-[1,2,4]triazolo[1,5-a]pyridin-8-yl]-3,6-dihydro-2H-pyridin-1-yl]butan-1-one] | 0.91
O=C(CCC(F)(F)F)N1CC=C(c2cccn3nc(Nc4ccc(C(=O)N5CCC(c6cc7cccnc7[nH]6)CC5)cc4)nc23)CC1 [Example 2-155, 4,4,4-trifluoro-1-[4-[2-[4-[4-(1H-pyrrolo[2,3-b]pyridin-2-yl)piperidine-1-carbonyl]anilino]-[1,2,4]triazolo[1,5-a]pyridin-8-yl]-3,6-dihydro-2H-pyridin-1-yl]butan-1-one] | 1.51
O=C(CCC(F)(F)F)N1CC=C(c2cccn3nc(Nc4ccc(C(=O)N5CCC(c6ccccn6)CC5)cc4)nc23)CC1 [Example 2-156, 4,4,4-trifluoro-1-[4-[2-[4-[4-(2-pyridyl)piperidine-1-carbonyl]anilino]-[1,2,4]triazolo[1,5-a]pyridin-8-yl]-3,6-dihydro-2H-pyridin-1-yl]butan-1-one] | 0.56
CC1CN(C2CCN(C(=O)c3ccc(Nc4nc5c(C6=CCN(C(=O)CCC(F)(F)F)CC6)cccn5n4)cc3)CC2)CC(C)O1 (stereo not drawn) [Example 2-157, 1-[4-[2-[4-[4-(2,6-dimethylmorpholin-4-yl)piperidine-1-carbonyl]anilino]-[1,2,4]triazolo[1,5-a]pyridin-8-yl]-3,6-dihydro-2H-pyridin-1-yl]-4,4,4-trifluoro-butan-1-one] | 0.71
CN(C)[C@H]1CCN(C(=O)c2ccc(Nc3nc4c(C5=CCN(C(=O)CCC(F)(F)F)CC5)cccn4n3)cc2)C1 [Example 2-158, 1-[4-[2-[4-[(3S)-3-(dimethylamino)pyrrolidine-1-carbonyl]anilino]-[1,2,4]triazolo[1,5-a]pyridin-8-yl]-3,6-dihydro-2H-pyridin-1-yl]-4,4,4-trifluoro-butan-1-one] | 1.05
